Assay results as given in the antibiotic and cytotoxicity screens of Wong et al. (2023).
This is one part of the list.

Experiments:
HSkMC = human skeletal muscle cells; assay: cytotoxicity call (relative viability < 0.9); settings: 10 µM
HepG2 = assay: cytotoxicity call (relative viability < 0.9); settings: 10 µM
S. aureus RN4220 = assay: growth inhibition call (relative growth <= 0.2); settings: 50 µM

| Structure (SMILES) | cytotoxicity call (HSkMC) | cytotoxicity call (HepG2) | growth inhibition call (S. aureus RN4220) |
| --- | --- | --- | --- |
| COc1ccc(NC(=O)N(C)C[C@H]2OCCCC[C@@H](C)Oc3ccc(NC(=O)CCC(F)(F)F)cc3C(=O)N([C@H](C)CO)C[C@H]2C)cc1 | inactive | inactive | inactive |
| CC(C)NC(=O)Nc1cccc2c1O[C@H](CN(C)C(=O)Nc1ccc3c(c1)OCO3)[C@@H](C)CN([C@@H](C)CO)C2=O | inactive | inactive | inactive |
| Cc1n[nH]c(C)c1CC(=O)O | inactive | inactive | inactive |
| COc1ccc(NC(=O)Nc2ccc3c(c2)CC(=O)N([C@@H](C)CO)C[C@H](C)[C@@H](CN(C)Cc2ccc(C(=O)Nc4ccccc4N)cc2)O3)cc1 | inactive | inactive | inactive |
| COc1ccc2c3c([nH]c2c1)[C@@H](CO)N(C[C@]13CCN(CC1)C(=O)c1ccccc1F)C(=O)Nc1ccc(cc1)F | inactive | inactive | inactive |
| Cc1ccc(S(=O)(=O)N(C)C[C@@H]2Oc3ccc(NC(=O)NC(C)C)cc3CC(=O)N([C@H](C)CO)C[C@H]2C)cc1 | inactive | inactive | inactive |
| CCOC(=O)c1c(NC(C)=O)no[n+]1[O-] | inactive | inactive | inactive |
| C[C@H](CO)N1C[C@H](C)[C@H](CN(C)Cc2ccc(-c3ccccc3)cc2)Oc2c(NC(=O)NC3CCCCC3)cccc2C1=O | inactive | inactive | inactive |
| Cn1c(=O)c2c(ncn2CC2OCCO2)n(C)c1=O | inactive | inactive | inactive |
| Cn1cnc(S(=O)(=O)N2C[C@H](O)COC[C@H]3O[C@H](CC(=O)NCc4ccc(F)cc4)CC[C@@H]32)c1 | inactive | inactive | inactive |
| C[C@H]1CN([C@@H](C)CO)C(=O)c2cc(NC(=O)c3ccncc3)ccc2O[C@H]1CN(C)Cc1ccncc1 | inactive | inactive | inactive |
| COc1ccc(S(=O)(=O)Nc2cccc3c2O[C@H](CN(C)C(=O)NC(C)C)[C@H](C)CN([C@@H](C)CO)C3=O)cc1 | inactive | inactive | inactive |
| COCC#Cc1ccc2c(c1)O[C@@H](CN(C)Cc1ccc3c(c1)OCO3)[C@H](C)CN([C@@H](C)CO)S2(=O)=O | inactive | inactive | inactive |
| C=C(C)C(=O)N1CCC=CC1=O | active | inactive | inactive |
| COc1cc(/C=C/C(=O)C2=C(NCCc3ccccc3)S[C@H](c3ccc(O)c(OC)c3)CC2=O)ccc1O | inactive | inactive | inactive |
| COc1ccc(NC(=O)N(C)C[C@@H]2OCCCC[C@@H](C)Oc3ccc(NC(=O)c4ccccc4)cc3C(=O)N([C@@H](C)CO)C[C@H]2C)cc1 | inactive | inactive | inactive |
| C[C@@H]1CN([C@H](C)CO)C(=O)Cc2cc(NC(=O)CCN3CCOCC3)ccc2O[C@@H]1CN(C)Cc1ccccc1 | inactive | inactive | inactive |
| COc1ccc(S(=O)(=O)N2C[C@@H](O)COC[C@H]3O[C@@H](CC(=O)NCCN4CCCCC4)CC[C@@H]32)cc1 | inactive | inactive | inactive |
| CC1(C)[C@H]2CC[C@@]1(C)c1nn(-c3ccccc3)c(C(F)(F)F)c12 | inactive | inactive | inactive |
| Nc1nc2nc[nH]c2c(=O)[nH]1 | inactive | inactive | inactive |

| Structure (SMILES) | cytotoxicity call (HSkMC) | cytotoxicity call (HepG2) | growth inhibition call (S. aureus RN4220) |
| --- | --- | --- | --- |
| CN(C)CC(=O)NS(=O)(=O)c1ccccc1 | inactive | inactive | inactive |
| C[C@@H](NC(=O)N(C)C[C@@H]1OCc2ccccc2-c2c(n(C)c3ccccc23)C(=O)N([C@@H](C)CO)C[C@@H]1C)c1ccccc1 | inactive | inactive | inactive |
| C[C@@H]1CN([C@@H](C)CO)C(=O)c2cc(NC(=O)Nc3ccc(C(F)(F)F)cc3)ccc2O[C@@H](C)CCCCO[C@@H]1CN(C)S(=O)(=O)c1cn(C)cn1 | inactive | inactive | inactive |
| Cc1noc(C)c1S(=O)(=O)Nc1cccc2c1O[C@H](CN(C)S(=O)(=O)c1ccc(F)cc1)[C@H](C)CN([C@H](C)CO)C2=O | inactive | inactive | inactive |
| Cc1noc(C)c1S(=O)(=O)N(C)C[C@@H]1Oc2ccc(NS(C)(=O)=O)cc2C(=O)N([C@@H](C)CO)C[C@@H]1C | inactive | inactive | inactive |
| COCCNC(=O)[C@@H]1[C@@H](CO)[C@@H]2Cn3c(cccc3=O)[C@H]1N2S(=O)(=O)c1ccccc1C | inactive | inactive | inactive |
| C[C@@H]1CN([C@@H](C)CO)C(=O)c2cc(Br)cnc2O[C@H]1CN(C)C(=O)CCN1CCCCC1 | inactive | inactive | inactive |
| COc1ccc(-c2cnc3c(c2)C(=O)N([C@@H](C)CO)C[C@H](C)[C@H](CN(C)C(=O)Cc2ccccn2)O3)cc1 | inactive | inactive | inactive |
| CC(C)[Si](C#C[Si](C(C)C)(C(C)C)C(C)C)(O[C@H](C)c1cn([C@H](CO)Cc2ccccc2)nn1)C(C)C | inactive | inactive | inactive |
| O=C(N[C@H]1CC[C@@H](CCNS(=O)(=O)c2ccc(F)cc2)O[C@@H]1CO)C1CC1 | inactive | inactive | inactive |
| C[C@H](CO)N1C[C@H](C)[C@@H](CN(C)C(=O)Nc2ccc(F)cc2)Oc2c(NS(=O)(=O)c3cn(C)cn3)cccc2C1=O | inactive | inactive | inactive |
| CCC(CC)c1ccc(O)cc1 | inactive | inactive | inactive |
| C[C@@H]1CN([C@@H](C)CO)C(=O)CCCn2cc(nn2)CO[C@H]1CN(C)S(C)(=O)=O | inactive | inactive | inactive |
| C[C@@H]1CN([C@@H](C)CO)C(=O)c2cc(NS(=O)(=O)c3cccs3)ccc2O[C@@H](C)CCCCO[C@H]1CN(C)S(=O)(=O)c1cn(C)cn1 | inactive | inactive | inactive |
| Cc1ccc(S(=O)(=O)Nc2ccc3c(c2)C(=O)N([C@H](C)CO)C[C@H](C)[C@@H](CN(C)Cc2ccc4c(c2)OCO4)OCCCC[C@@H](C)O3)cc1 | inactive | inactive | inactive |
| CCS(=O)(=O)N1C[C@]2(C1)CN([C@@H](CO)c1c2c2ccc(cc2n1C)OC)C(=O)CN1CCOCC1 | inactive | inactive | inactive |
| COc1ccc(S(=O)(=O)N(C)C[C@H]2Oc3ccc(NC(=O)NC(C)C)cc3C(=O)N([C@H](C)CO)C[C@@H]2C)cc1 | inactive | inactive | inactive |
| C[C@@H]1CN([C@H](C)CO)C(=O)c2cc(NC(=O)Cc3ccccc3)ccc2O[C@@H](C)CCCCO[C@@H]1CN(C)C(=O)Cc1ccccc1 | inactive | inactive | inactive |
| Oc1cccc2ccccc12 | active | inactive | inactive |
| C[C@H]1CN([C@@H](C)CO)S(=O)(=O)c2ccc(C#CC3(O)CCCC3)cc2O[C@@H]1CN(C)C(=O)Cc1ccccc1 | inactive | inactive | inactive |

| Structure (SMILES) | cytotoxicity call (HSkMC) | cytotoxicity call (HepG2) | growth inhibition call (S. aureus RN4220) |
| --- | --- | --- | --- |
| COc1ccccc1CNC(=O)C[C@H]1C[C@H]2c3cc(NS(=O)(=O)c4ccc(F)cc4)ccc3O[C@H]2[C@H](CO)O1 | inactive | inactive | inactive |
| CN(C)c1nc(SCCO)nc(N(C)C)n1 | inactive | inactive | inactive |
| COC(=O)C[C@@H]1CC[C@H]2[C@@H](COC[C@@H](O)CN2S(=O)(=O)c2cn(C)cn2)O1 | inactive | inactive | inactive |
| NC(=S)N/N=C/c1ccncc1 | inactive | inactive | inactive |
| CC(C)c1c(O)c(-c2cc3c(c(C(C)C)c2O)CC[C@H]2C(C)(C)CCC[C@]32C)cc2c1CC[C@H]1C(C)(C)CCC[C@]21C | inactive | inactive | inactive |
| NCC[C@H]1CC[C@H](NC(=O)C2CCCC2)[C@@H](CO)O1 | inactive | inactive | inactive |
| O=C(CS)NCCCCCNC(=O)[C@H]1C[C@H]2C(=O)NCC(=O)N2[C@H]1c1cccc(OCCO)c1 | inactive | inactive | inactive |
| C[C@H](CO)N1C[C@H](C)[C@@H](CN(C)S(=O)(=O)c2cccs2)Oc2ccc(NC(=O)CCN3CCOCC3)cc2CC1=O | inactive | inactive | inactive |
| COCC#Cc1ccc2c(c1)O[C@@H](CN(C)S(=O)(=O)c1ccc(OC)cc1)[C@@H](C)CN([C@H](C)CO)S2(=O)=O | inactive | inactive | inactive |
| COc1ccc(NC(=O)N(C)C[C@@H]2OCCCC[C@@H](C)Oc3ccc(NS(=O)(=O)c4ccc(OC)cc4)cc3C(=O)N([C@H](C)CO)C[C@@H]2C)cc1 | inactive | inactive | inactive |
| Cc1noc(C)c1NC(=O)Nc1ccc2c(c1)C(=O)N([C@@H](C)CO)C[C@H](C)[C@@H](CN(C)S(=O)(=O)c1ccccc1)OCCCC[C@@H](C)O2 | inactive | inactive | inactive |
| C[C@@H]1CN([C@@H](C)CO)C(=O)Cc2cc(NC(=O)Nc3cccc4ccccc34)ccc2O[C@H]1CN(C)C(=O)Nc1cccc2ccccc12 | inactive | inactive | inactive |
| CC(C)Cn1c(=O)n(C)c(=O)c2[nH]cnc21 | inactive | inactive | inactive |
| COc1ccc(NC(=O)Nc2ccc3c(c2)CC(=O)N([C@@H](C)CO)C[C@@H](C)[C@H](CN(C)S(C)(=O)=O)O3)cc1 | inactive | inactive | inactive |
| C[C@H]1CN([C@@H](C)CO)C(=O)Cc2cc(NC(=O)Nc3ccc4c(c3)OCO4)ccc2O[C@@H]1CN(C)Cc1ccc(Oc2ccccc2)cc1 | inactive | inactive | inactive |
| CCC(=O)N[C@H]1CC[C@@H](CC(=O)OC)O[C@H]1CO | inactive | inactive | inactive |
| CC[C@@H](Sc1n[nH]c(=O)[nH]c1=O)C(=O)O | inactive | inactive | inactive |
| C[C@H]1CCCCO[C@@H](CN(C)C(=O)Nc2cccc3ccccc23)[C@@H](C)CN([C@@H](C)CO)C(=O)c2cc(NC(=O)Cc3ccccc3)ccc2O1 | inactive | active | inactive |
| COc1ccc(NC(=O)N(C)C[C@H]2Oc3ccc(NC(=O)Cn4cnnn4)cc3C(=O)N([C@@H](C)CO)C[C@@H]2C)cc1 | inactive | inactive | inactive |
